# Assay results reported in the supplement of paper PMC8728848.
# This is one part of the list.
# B1: CFEM-SCL (Saccharomyces cerevisiae), O13547 (protein)
# chain: MRATTLLSSVVSLALLSKEVLATPPACLLACVAQVGKSSSTCDSLNQVTCYCEHENSAVKKCLDSICPNNDADAAYSAFKSSCSEQNASLGD
# Key:
# Assay in all cases: glycan array binding signal (z-score within array); higher = stronger binding
# Conditions in all cases: glycan notation: IUPAC condensed, linker removed
# Neu5Ac(a2-8)Neu5Ac = target: Neu5Ac(a2-8)Neu5Ac
# Procedure, shortened: (§1)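 Negative Z-scores can be read as non-binding. The Z-score is calculated within each array and then averaged across arrays of one protein sequence at different concentrations or buffers and across linkers. Arrays, 3228 in all, were curated from the Consortium for Functional Glycomics database and kept only where the protein sequence was available.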
# [1] = target: Neu5Ac(a2-8)Neu5Ac(a2-3)Gal(b1-3)GalNAc(b1-4)[Neu5Ac(a2-3)]Gal(b1-4)Glc
# Procedure, shortened: as §1
# [2] = target: Neu5Ac(a2-8)Neu5Ac(a2-3)Gal(b1-3)GalNAc(b1-4)[Neu5Ac(a2-8)Neu5Ac(a2-3)]Gal(b1-4)Glc
# Procedure, shortened: as §1
# [3] = target: Neu5Ac(a2-8)Neu5Ac(a2-3)Gal(b1-4)Glc
# Procedure, shortened: as §1
# [4] = target: Neu5Ac(a2-8)Neu5Ac(a2-3)Gal(b1-4)GlcNAc
# Procedure, shortened: as §1
# [5] = target: Neu5Ac(a2-8)Neu5Ac(a2-3)[Gal(b1-3)GalNAc(b1-4)]Gal(b1-4)Glc
# Procedure, shortened: as §1
# [6] = target: Neu5Ac(a2-8)Neu5Ac(a2-3)[GalNAc(b1-4)]Gal(b1-4)Glc
# Procedure, shortened: as §1
# [7] = target: Neu5Ac(a2-8)Neu5Ac(a2-8)Neu5Ac
# Procedure, shortened: as §1
# [8] = target: Neu5Ac(a2-8)Neu5Ac(a2-8)Neu5Ac(a2-3)Gal(b1-4)Glc
# Procedure, shortened: as §1
# [9] = target: Neu5Ac(a2-8)Neu5Ac(a2-8)Neu5Ac(a2-3)[Gal(b1-3)GalNAc(b1-4)]Gal(b1-4)Glc
# Procedure, shortened: as §1
# [10] = target: Neu5Ac(a2-8)Neu5Ac(a2-8)Neu5Ac(a2-3)[GalNAc(b1-4)]Gal(b1-4)Glc
# Procedure, shortened: as §1
# [11] = target: Neu5Ac(a2-8)Neu5Ac(a2-8)Neu5Ac(a2-8)Neu5Ac(a2-3)[GalNAc(b1-4)]Gal(b1-4)Glc
# Procedure, shortened: as §1
# [12] = target: Neu5Ac(a2-8)Neu5Gc(a2-3)Gal(b1-4)GlcNAc
# Procedure, shortened: as §1
# [13] = target: Neu5Ac(b2-6)Gal(b1-4)GlcNAc
# Procedure, shortened: as §1
# Neu5Ac(b2-6)GalNAc = target: Neu5Ac(b2-6)GalNAc
# Procedure, shortened: as §1
# [14] = target: Neu5Ac9Ac(a2-3)Gal(b1-3)GlcNAc
# Procedure, shortened: as §1
# [15] = target: Neu5Ac9Ac(a2-3)Gal(b1-4)GlcNAc
# Procedure, shortened: as §1
# [16] = target: Neu5Ac9Ac(a2-6)Gal(b1-4)GlcNAc
# Procedure, shortened: as §1
# [17] = target: Neu5Gc(a2-3)Gal(b1-3)GlcNAc
# Procedure, shortened: as §1
# [18] = target: Neu5Gc(a2-3)Gal(b1-3)[Fuc(a1-4)]GlcNAc
# Procedure, shortened: as §1
# Neu5Gc(a2-3)Gal(b1-4)Glc = target: Neu5Gc(a2-3)Gal(b1-4)Glc
# Procedure, shortened: as §1
# [19] = target: Neu5Gc(a2-3)Gal(b1-4)GlcNAc
# Procedure, shortened: as §1
# [20] = target: Neu5Gc(a2-3)Gal(b1-4)GlcNAc(b1-3)Gal(b1-4)GlcNAc(b1-2)Man(a1-3)[Neu5Gc(a2-3)Gal(b1-4)GlcNAc(b1-3)Gal(b1-4)GlcNAc(b1-2)Man(a1-6)]Man(b1-4)GlcNAc(b1-4)GlcNAc
# Procedure, shortened: as §1
# [21] = target: Neu5Gc(a2-3)Gal(b1-4)[Fuc(a1-3)]GlcNAc
# Procedure, shortened: as §1
# [22] = target: Neu5Gc(a2-6)Gal(b1-4)GlcNAc
# Procedure, shortened: as §1
# Neu5Gc(a2-6)GalNAc = target: Neu5Gc(a2-6)GalNAc
# Procedure, shortened: as §1
# [23] = target: Neu5Gc(a2-8)Neu5Ac(a2-3)Gal(b1-4)GlcNAc
# Procedure, shortened: as §1
# [24] = target: Neu5Gc(a2-8)Neu5Gc(a2-3)Gal(b1-4)GlcNAc
# Procedure, shortened: as §1
# [25] = target: Neu5Gc(a2-8)Neu5Gc(a2-3)Gal(b1-4)GlcNAc(b1-3)Gal(b1-4)GlcNAc
# Procedure, shortened: as §1
# [26] = target: Neu5Gc(a2-8)Neu5Gc(a2-6)Gal(b1-4)GlcNAc
# Procedure, shortened: as §1
# [27] = target: Neu5Gc(b2-6)Gal(b1-4)GlcNAc
# Procedure, shortened: as §1
binder,measurement,setting,value
B1,glycan array binding signal (z-score),Neu5Ac(a2-8)Neu5Ac,-0.237
same,glycan array binding signal (z-score),[1],-0.287
same,glycan array binding signal (z-score),[2],-0.147
same,glycan array binding signal (z-score),[3],-0.334
same,glycan array binding signal (z-score),[4],-0.255
same,glycan array binding signal (z-score),[5],0.641
same,glycan array binding signal (z-score),[6],-0.285
same,glycan array binding signal (z-score),[7],-0.286
same,glycan array binding signal (z-score),[8],-0.375
same,glycan array binding signal (z-score),[9],-0.036
same,glycan array binding signal (z-score),[10],-0.298
same,glycan array binding signal (z-score),[11],-0.274
same,glycan array binding signal (z-score),[12],-0.289
same,glycan array binding signal (z-score),[13],0.174
same,glycan array binding signal (z-score),Neu5Ac(b2-6)GalNAc,-0.169
same,glycan array binding signal (z-score),[14],-0.256
same,glycan array binding signal (z-score),[15],-0.325
same,glycan array binding signal (z-score),[16],-0.335
same,glycan array binding signal (z-score),[17],-0.298
same,glycan array binding signal (z-score),[18],-0.308
same,glycan array binding signal (z-score),Neu5Gc(a2-3)Gal(b1-4)Glc,-0.239
same,glycan array binding signal (z-score),[19],-0.323
same,glycan array binding signal (z-score),[20],-0.291
same,glycan array binding signal (z-score),[21],-0.154
same,glycan array binding signal (z-score),[22],0.075
same,glycan array binding signal (z-score),Neu5Gc(a2-6)GalNAc,-0.244
same,glycan array binding signal (z-score),[23],-0.131
same,glycan array binding signal (z-score),[24],-0.135
same,glycan array binding signal (z-score),[25],-0.293
same,glycan array binding signal (z-score),[26],-0.308
same,glycan array binding signal (z-score),[27],-0.202
